# Measurements taken from PubChem BioAssay AID1671194 (National Center for Advancing Translational Sciences (NCATS), 2021).
# Out of some 140,000 compounds screened, about 240 (0.17%) were called active. Inconclusive means that the source gave no clear call. Such entries were picked first, then a sample of the others. Calls come from the whole dose curve; as a rule, active = well fitted inhibition curve with a large enough effect; inconclusive = small, poorly fitted or top-dose-only effect; inactive = no such curve, though single readings can be large or run the other way. Potencies beside an inconclusive call are fits to weak or partial responses and may not hold up.
# Assay: Primary qHTS assay for inhibitors of alpha-synuclein gene (SNCA) expression; note: nearly all actives have a fitted effect of over 45% in size;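 for activity change, negative = inhibition: plate controls were DMSO cells for no effect and cell-free wells for full effect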
# Settings: HEK-293 SNCA-luciferase knock-in, luminescence, 24 h; activity change, negative = inhibition: at 57.2 µM (top of the series) unless noted
# Potency is the fitted concentration of half-maximal effect; tags give direction and shape of the fitted curve.
Structure (SMILES),Potency,"activity change, negative = inhibition"
COc1cccc(N2C(=O)NC(=NC3CCCCC3)C23CCN(C(=O)c2ccc(C(F)(F)F)cc2)C3)c1 (stereo not drawn),"inconclusive: 39.8 µM [inhibitor, single point]",
COc1cccc(C(=O)N2CCCC2C(=O)N2CCCC2c2nc3ccncc3[nH]2)c1 (stereo not drawn),,inactive: -2.22%
Cc1ccc(C(=O)N2CCC(CCC(=O)NC3CC3)CC2)cc1,"inconclusive: 2.24 µM [inhibitor, full curve, poor fit]",
Cn1c2ccccc2c2c3c(c4c5ccccc5n(CCC#N)c4c21)CNC3=O,"inconclusive: 1.21 µM [inhibitor, full curve, poor fit]",
CCc1ccc(C(=O)Nc2cc(CN3CCN(C)CC3)cc(C(F)(F)F)c2)cc1C#Cc1cnc2ccnn2c1,active: 24.1 µM,
COc1ccc(CN2CCOC[C@H]2c2ncc(-c3ccc(S(C)(=O)=O)cc3)[nH]2)cc1,"inconclusive: 1.12 µM [inhibitor, full curve, poor fit]",
NC(=O)c1cc2c(nc1N1CCC3(CCCN(CC4CCC4)C3)C1)CCC2 (stereo not drawn),,inactive: -12.6%
CN(Cc1ccc(F)cc1)Cc1cnc(S(C)(=O)=O)n1CCCc1ccccc1,"inconclusive: 39.8 µM [inhibitor, single point]",
CCN1c2cc(C(=O)Nc3cccc(F)c3)ccc2C(=O)N2CCCCC21 (stereo not drawn),,inactive: 7.24%
O=C(c1ccsc1)N1CCCC2(C1)Nc1cccnc1NC2=NC1CCCC1 (stereo not drawn),,inactive: -23%
COc1ccc(CCNC(=O)c2ccc3nnc(-c4cc(C(F)(F)F)cc(C(F)(F)F)c4)n3c2)cc1,"inconclusive: 39.8 µM [inhibitor, single point]",
CC(=O)c1ccc(N2CCN(c3ncnc4onc(C)c34)CC2)cc1,"inconclusive: 3.55 µM [inhibitor, single point]",
Cc1cnc(CCNC(=O)C2CC2)n1CC1CC1,,inactive: -1.95%
COc1cc(-c2nc(-c3cccc(Cl)c3)c(-c3ccccc3)[nH]2)cc(OC)c1OC,"inconclusive: 35.5 µM [inhibitor, single point]",
COc1cccc(-c2nc3cnccn3c2NCCC(=O)Nc2cccc(Cl)c2)c1,,inactive: -1.16%
CC(=O)N1CCC(Cc2nc(-c3ccccc3)n[nH]2)CC1,,inactive: 1.49%
Fc1cccc(-c2cnc(Nc3ccc(N4CCOCC4)cc3)c3c2CCO3)c1,,inactive: 17.5% [at 87.6 µM]
O=[S+]1([O-])NC2(CCN(Cc3ccc(C(F)(F)F)cc3)C2)CNc2ccccc21 (stereo not drawn),,inactive: -15.9%
O=C(Nc1cc(Cl)cc(Cl)c1)c1ccc(F)c(S(=O)(=O)NC2CCCCC2)c1,"inconclusive: 39.8 µM [inhibitor, single point]",
Cc1ccc(NC(=O)Cn2c(=O)n(Cc3ccc4c(c3)OCO4)c(=O)c3ccccc32)c(C)c1,"inconclusive: 39.8 µM [inhibitor, single point]",
COc1ccc(-c2ccc3ncc(Nc4ccccc4)n3n2)cc1OC,,inactive: 21.6% [at 87.6 µM]
O=C(c1nccc2ccccc12)N1CCC(Cc2nc(C3CC3)n[nH]2)C1 (stereo not drawn),,inactive: 25%

Structure (SMILES),Potency,"activity change, negative = inhibition"
O=C(c1ccccc1F)N1CCC(N2CC3(CCCC3)C2c2ccccc2)CC1 (stereo not drawn),,inactive: -23.9%
c1ccc(-n2cc(CN3CCC(Oc4ccncc4)CC3)nn2)cc1,"inconclusive: 22.4 µM [inhibitor, single point]",
CCOc1ccc(CC(=O)N2CCC(Cc3nc(-c4ccccc4)no3)CC2)cc1,"inconclusive: 10 µM [inhibitor, partial curve, poor fit]",
COCCNC(=O)[C@H]1C[C@H](Oc2ccccc2)CN1C(=O)NC(C)C,"inconclusive: 3.98 µM [inhibitor, single point]",
CCc1ccc(CNC(=O)C2c3ccccc3CC(=O)N2C(C)C)cc1 (stereo not drawn),"inconclusive: 8.91 µM [inhibitor, single point]",
CCCn1c(CCC(=O)Nc2cc(Cl)c(OC)cc2OC)nc2cccnc21,"inconclusive: 39.8 µM [inhibitor, single point]",
O=C(Cn1c(=O)n(-c2ccccc2Cl)c(=O)c2sc3ccccc3c21)N1CCCC1,"inconclusive: 39.8 µM [inhibitor, single point]",
CCOC(=O)c1c(C)[nH]c(CCC(=O)NCCCN2CCN(c3cc(C)ccc3C)CC2)c1C,"inconclusive: 35.5 µM [inhibitor, single point]",
O=C1N(CCc2ccccc2)CCOC12CCN(Cc1ccc(F)c(Cl)c1)CC2,"inconclusive: 56.2 µM [inhibitor, single point]",
CCN1c2cc(C(=O)Nc3ccc(C)cc3Cl)ccc2C(=O)N2CCCCCC21 (stereo not drawn),,inactive: -18.5%
CC(C)Cc1nn2c(=O)cc(COC(=O)c3ccc4c(c3)OCO4)nc2s1,"inconclusive: 17.8 µM [inhibitor, partial curve]",
CCN(CC)S(=O)(=O)c1ccc(NC(=O)CCc2c(C)nc3cc(-c4ccc(Cl)cc4)nn3c2C)cc1,"inconclusive: 0.891 µM [inhibitor, full curve, poor fit]",
Cc1cccc(-c2cnc3n[nH]c(-c4ccccc4)c3n2)c1,"inconclusive: 70.8 µM [inhibitor, single point]",
COCCN1CCC(N2CCN(C(=O)c3ccc(F)cc3)CC2)C1=O (stereo not drawn),,inactive: -24.8%
O=C1NC(=O)C(c2cnc3ccccn23)=C1c1cn2c3c(cccc13)CN(C(=O)N1CCOCC1)CC2,"inconclusive: 0.0014 µM [inhibitor, full curve, poor fit]",
Cn1c(CO[C@H]2CN(C(=O)C3CCOCC3)C[C@H]2F)nc2ccccc21,,inactive: 5.49% [at 87.6 µM]
Cc1cc2oc(C(=O)Nc3sc4c(c3C(=O)NCC3CCCO3)CCC4)cc(=O)c2cc1C (stereo not drawn),,inactive: -8.39%
O=C(c1ccncc1)N1CCc2nc3cc(-c4ccccc4Cl)[nH]n3c(=O)c2C1,active: 7.94 µM,
Cc1ccc(-c2cc(C(=O)NCc3ccc(C(F)(F)F)cc3)c3cnn(C)c3n2)c(C)c1,"inconclusive: 39.8 µM [inhibitor, single point]",
Cc1cccc(-c2noc([C@@H]3Cc4nc[nH]c4CN3Cc3ccc(C(=O)O)cc3)n2)c1,"inconclusive: 2.24 µM [inhibitor, full curve, poor fit]",
O=c1oc2c(CN3CCOCC3)c(O)ccc2cc1-c1ccc(Cl)cc1,"inconclusive: 5.01 µM [inhibitor, full curve, poor fit]",
